49 compounds from publication PMC6919601, “Identification of Plasmodium dipeptidyl aminopeptidase allosteric inhibitors by high throughput screening” (PLoS ONE, 2019) can be followed below.

About 230 (0.21%) of roughly 110,000 compounds showed an effect of 50% or more. The list shows a part of the results.
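Note: 30 min substrate incubation versus DMSO and 10 µM JCP410 controls.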

Sequence of DPAP1 (Q8IIJ9 whole entry, looked up): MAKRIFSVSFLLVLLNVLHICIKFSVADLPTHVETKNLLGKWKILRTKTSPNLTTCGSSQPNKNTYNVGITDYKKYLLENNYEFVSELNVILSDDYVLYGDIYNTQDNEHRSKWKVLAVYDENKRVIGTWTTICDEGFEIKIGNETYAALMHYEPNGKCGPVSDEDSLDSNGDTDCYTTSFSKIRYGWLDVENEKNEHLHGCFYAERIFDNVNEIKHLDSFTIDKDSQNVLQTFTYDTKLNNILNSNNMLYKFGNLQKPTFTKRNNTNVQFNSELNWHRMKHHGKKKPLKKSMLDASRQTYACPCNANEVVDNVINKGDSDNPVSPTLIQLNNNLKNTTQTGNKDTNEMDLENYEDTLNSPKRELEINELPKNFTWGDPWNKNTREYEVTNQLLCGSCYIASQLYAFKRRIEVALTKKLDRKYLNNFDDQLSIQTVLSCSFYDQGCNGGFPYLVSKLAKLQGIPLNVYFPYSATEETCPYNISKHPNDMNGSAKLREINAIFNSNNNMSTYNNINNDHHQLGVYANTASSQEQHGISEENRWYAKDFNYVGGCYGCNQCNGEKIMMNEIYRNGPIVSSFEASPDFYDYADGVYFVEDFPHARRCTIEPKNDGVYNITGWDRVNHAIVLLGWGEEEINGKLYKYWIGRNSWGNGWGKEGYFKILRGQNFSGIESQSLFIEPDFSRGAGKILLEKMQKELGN

The assay concerns the target DPAP1 (Plasmodium falciparum, UniProt Q8IIJ9). The assay can be described thus: primary screen, percent inhibition; read by cleavage of a fluorogenic dipeptide substrate; higher = more effect of the substance. The arrangement: species or system P. falciparum D10 trophozoite lysates; single well.
Consider `Cc1cccc(Cn2c(SCc3ccc(C(=O)O)cc3)nc3cccnc32)c1`, for which the “% Inhibition @ 10 uM” value was 7.75%.
As to `CC(=O)N1CCC(NC(c2ccccc2)c2ccccc2)CC1`, the “% Inhibition @ 10 uM” value was -1.86%.
With `CC(C)Cc1nc2ccccc2n1Cc1ccccc1`, the “% Inhibition @ 10 uM” value turned out to be 7.28%.
In the case of `COc1ccc(C2Nn3c(nnc3-c3ccccc3)SC2C(=O)N2C(C)CCCC2C)cc1` (stereo not shown), the “% Inhibition @ 10 uM” value is -9.37%.
Under `Clc1ccc2c(Sc3cccc4cccnc34)ccnc2c1` stands 1%; under `COc1ccc2nc3oc(C(=O)NCc4cccnc4)cc3cc2c1`, 5.1%.
The value for `CN(C)CCCN1C(=O)C(O)=C(C(=O)c2ccc(S(=O)(=O)N(C)C)cc2)C1c1ccccc1` (stereo not shown) was 0.487%.
In the case of `CCCC1=NN2C(=N)/C(=C\c3ccc(SCc4ccco4)o3)C(=O)N=C2S1`, the “% Inhibition @ 10 uM” value is reported as 0.458%.
The value for `COc1ccc(OC)c(CNc2ccccc2)c1` was -7.08%.
Under `O=C(CCCn1ncn2c(cc3occc32)c1=O)NCc1cccc(Cl)c1` stands -5.63%; under `N#C/C(=C/c1ccco1)c1nc(-c2cc3ccccc3oc2=O)cs1`, -2.47%; under `CCN1CCc2c(sc(N)c2C(N)=O)C1`, 3.65%.
Under `Cc1ccc(S(=O)(=O)N2CCC(C(=O)N3CCN(C)CC3)CC2)cc1` stands -1.17%; under `COc1ccc(S(=O)(=O)/N=C2\C=CC(=O)c3ccccc32)cc1`, 5.12%.
Consider `O=C(O)C(Cc1ccccc1)N1C(=O)C2C3c4ccccc4C(c4ccccc43)C2C1=O` (stereo not shown), for which the “% Inhibition @ 10 uM” value turned out to be 3.29%.
The value for `COc1ccc2ccccc2c1/C=C(\C#N)C(=O)NCCc1ccccc1` was -3.78%; that for `CCOc1ccc(NC(=O)CSc2ncccn2)cc1` was -3.37%.
With `O=C1c2ccccc2-c2ncnc3ccc(Cl)c1c23`, the “% Inhibition @ 10 uM” value came out at 3.9%.
The value for `O=C(Cc1ccccc1)NCc1nnc(SCC(=O)Nc2nccs2)n1-c1ccc(F)cc1` was 2.12%; that for `COc1cc2nc(S)nc(NCCNC(C)=O)c2cc1OC` was 4.01%; that for `CN1CCN(C2Cc3ccccc3Sc3c(O)cccc32)CC1` (stereo not shown) was 0.59%.
The value for `Cc1ccc(C(=O)Nc2cccc3cccnc23)cc1C` was -0.884%; that for `COc1cc(CCC(=O)Nc2noc3ccccc23)cc(OC)c1OC` was -1.11%.
The value for `CCC(CC)c1nc(C#N)c(NCc2ccccc2)o1` was -1.84%; that for `CCN1C(=O)/C(=C\c2ccccc2O)C(C(=O)OC)=C1C` was -7.18%; that for `CC(=O)Nc1ccc(NC(=O)c2ccc([N+](=O)[O-])o2)cc1` was 0.98%.
As for `O=S1(=O)CCC(NS(=O)(=O)C2CCS(=O)(=O)C2)C1` (stereo not shown), the “% Inhibition @ 10 uM” value is -6.29%.
For the compound `CC(C(=O)N1CCN(c2ccccc2)CC1)N(c1ccccc1)S(C)(=O)=O` (stereo not shown), the “% Inhibition @ 10 uM” value was 2.44%.
Under `CCN(CC)CCCNC(=O)C(C)Sc1nc(-c2ccccc2)cc(C(F)(F)F)n1` (stereo not shown) stands 4.08%; under `O=C(CC(NCCN1CCOCC1)C(=O)O)Nc1ccc(Cl)cc1Cl` (stereo not shown), -1.51%; under `CC1(C)OC[C@@H]([C@H](O)P(=O)(c2ccccc2)c2ccccc2)O1`, 1.72%.
The value for `COc1cccc(-c2noc(CCC(=O)N(C)C)n2)c1` was 5.82%.
The value for `CCCOc1ccc(C2C3=C(O)c4ccccc4C3=Nc3c2c(=O)n(C)c(=O)n3C)cc1OC` (stereo not shown) was 7.16%.
For `Cc1[nH]cnc1CN1C[C@@H]2C[C@H](C1)c1cccc(=O)n1C2`, the “% Inhibition @ 10 uM” value was -3.63%.
As for `O=C(O)CCCc1nnc2n3nc(-c4ccccc4)nc3c3ccccc3n12`, the “% Inhibition @ 10 uM” value is recorded as 26.8%.
The value for `COc1ccc(-c2ccc3c(N)c(C(=O)Nc4ccc(OC)cc4OC)sc3n2)cc1` was 2.44%; that for `NS(=O)(=O)c1ccc(NC(=O)c2ccccc2C(=O)O)cc1` was 2.4%; that for `CN(C)c1ccc2c3c(cccc13)C(=O)N(Cc1ccccc1)C2=O` was 2.69%.
For the compound `CCOc1ccc(C2=NN(c3ccccc3Cl)C(c3ccccc3F)C2)cc1` (stereo not shown), the “% Inhibition @ 10 uM” value is -8.03%.
Under `COc1cc(OC)c(OC)cc1CN1CCN(C(=O)C(c2ccccc2)c2ccccc2)CC1` stands -6.91%; under `CC(=O)OC1CCC2(C)C(CCC3C4CC=C(/C(C)=N\O)C4(C)CCC32)C1` (stereo not shown), 2.22%; under `Cc1cc(C2C(C#N)=C(N)N(c3nc[nH]n3)C3=C2C(=O)CC(C)(C)C3)c(C)s1` (stereo not shown), -3.63%.
Under `C=CCn1cnc2sc(C)c(-c3ccc(OCC)cc3)c2c1=O` stands -4.02%; under `CCN1CCN(C(=O)c2cnn(-c3ccccc3)c2NC(=O)c2ccccc2C)CC1`, -3.41%.
Under `Cc1nc2nc(-c3ccco3)nn2c(O)c1C` stands -2.4%; under `COc1cc(OC)c(OC)cc1CN1CCN(Cc2ccco2)CC1`, 3.86%.
With `CC(C)CCNC(=O)CCn1ccc2cc(S(=O)(=O)N3CCCC3)ccc21`, the “% Inhibition @ 10 uM” value was -1.76%.
For the compound `Cc1nnc(N2C(=N)S/C(=C\c3ccccc3Cl)C2=O)s1`, the “% Inhibition @ 10 uM” value was found to be 1.52%.
As to `O=C(CSCC(=O)Nc1ccc(Br)cc1)Nc1ccc(F)cc1`, the “% Inhibition @ 10 uM” value is -5.92%.
